Assay results published in patent US8481551B2, “Gyrase and topoisomerase IV inhibitors” (Vertex Pharmaceuticals Incorporated, priority 2011, dated 2013).

Test system: Haemophilus influenzae
Assay: Gyrase MIC against Gram negatives, microdilution broth method (Protocol 2)
Assay type: cell-based
Details: ATCC51907, Haemophilus influenzae (Rd1 KW20) ATCC 51907

## CCNC(=O)Nc1nc2cc(-c3cnc(C(C)(C)O)nc3)cc([C@H]3CCCO3)c2[nH]1 [Compound 13, methanesulfonic acid salt of 1-ethyl-3-[5-[2-(1-hydroxy-1-methyl-ethyl)pyrimidin-5-yl]-7-[(2R)-tetrahydrofuran-2-yl]-1H-benzimidazol-2-yl]urea]
  MIC: 2.5 µg/mL

## CCNC(=O)Nc1nc2cc(-c3cnc(C(C)(C)O)nc3)c(F)c([C@H]3CCCO3)c2[nH]1 [Compound 23A, methanesulfonic acid salt of 1-ethyl-3-[6-fluoro-5-[2-(1-hydroxy-1-methyl-ethyl)pyrimidin-5-yl]-7-[(2R)-tetrahydrofuran-2-yl]-1H-benzimidazol-2-yl]urea]
  MIC: 1.3 µg/mL

Where a name gives a salt, the structure may show the parent alone.
